{"source": "paper PMC4336329", "about": "(PLoS ONE, 2015)", "note": "Out of some 310,000 compounds screened, about 2,200 (0.71%) showed an effect of 50% or more. Effects have a minus sign here. Some of the results follow.", "data": [{"biological_target": "human ether-à-go-go-related gene (hERG) potassium channel (human, UniProt Q12809)", "sequence (Q12809 whole entry, looked up)": "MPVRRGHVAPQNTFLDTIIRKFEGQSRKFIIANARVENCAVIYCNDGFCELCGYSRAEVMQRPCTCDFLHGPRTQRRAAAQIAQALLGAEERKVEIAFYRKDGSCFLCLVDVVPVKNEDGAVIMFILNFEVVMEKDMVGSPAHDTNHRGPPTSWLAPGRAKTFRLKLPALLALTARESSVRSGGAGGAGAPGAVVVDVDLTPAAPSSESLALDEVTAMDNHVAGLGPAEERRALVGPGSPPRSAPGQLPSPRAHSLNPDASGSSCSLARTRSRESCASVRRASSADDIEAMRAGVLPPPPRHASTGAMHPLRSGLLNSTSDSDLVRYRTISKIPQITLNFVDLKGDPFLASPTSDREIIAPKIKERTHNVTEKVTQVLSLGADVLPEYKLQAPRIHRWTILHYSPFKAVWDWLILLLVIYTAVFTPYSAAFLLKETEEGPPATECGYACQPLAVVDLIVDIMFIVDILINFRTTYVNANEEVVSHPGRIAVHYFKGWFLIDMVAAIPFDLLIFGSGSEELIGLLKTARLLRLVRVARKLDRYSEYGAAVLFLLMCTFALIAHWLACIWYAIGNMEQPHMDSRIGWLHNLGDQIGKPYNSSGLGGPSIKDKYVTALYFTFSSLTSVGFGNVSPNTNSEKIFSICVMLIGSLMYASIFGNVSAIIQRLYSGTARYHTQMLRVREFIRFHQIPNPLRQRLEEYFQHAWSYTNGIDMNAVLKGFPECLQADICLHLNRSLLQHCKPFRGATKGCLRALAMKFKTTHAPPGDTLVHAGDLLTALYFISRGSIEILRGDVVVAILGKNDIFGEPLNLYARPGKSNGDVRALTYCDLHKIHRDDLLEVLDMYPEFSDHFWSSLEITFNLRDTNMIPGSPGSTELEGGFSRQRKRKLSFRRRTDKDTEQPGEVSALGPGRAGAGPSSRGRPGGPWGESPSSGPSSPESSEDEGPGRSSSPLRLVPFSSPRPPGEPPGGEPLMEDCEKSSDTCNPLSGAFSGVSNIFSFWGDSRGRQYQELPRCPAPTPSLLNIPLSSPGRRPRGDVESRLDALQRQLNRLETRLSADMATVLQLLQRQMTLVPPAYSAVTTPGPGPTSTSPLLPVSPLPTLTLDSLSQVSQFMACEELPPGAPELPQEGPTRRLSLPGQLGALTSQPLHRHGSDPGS", "assay": "primary screen, population patch clamp on CHO cells stably expressing hERG", "units": {"hERG current change (%, negative = inhibition) at 1uM": "%"}, "values": [{"smiles": "Cc1noc(C)c1COC(=O)c1ccccc1NC(=O)Cc1ccccc1", "hERG current change (%, negative = inhibition) at 1uM": -2.78}, {"smiles": "CC(OC(=O)c1ccccc1O)C(=O)Nc1ccc(Cl)cn1", "note": "(stereo not shown)", "hERG current change (%, negative = inhibition) at 1uM": 3.23}, {"smiles": "COc1ccc(Cl)cc1NC(=O)CN(C)C(=O)c1cc(-c2cccs2)nn1-c1ccccc1", "hERG current change (%, negative = inhibition) at 1uM": -3.49}, {"smiles": "Cn1c2c(c3ccccc31)CC/C2=N\\O", "hERG current change (%, negative = inhibition) at 1uM": 0.871}, {"smiles": "O=S(=O)(/N=C(/Sc1ccccc1)c1ccccc1)c1ccccc1", "hERG current change (%, negative = inhibition) at 1uM": 13.1}, {"smiles": "NC(=O)C1CCCN(S(=O)(=O)c2ccccc2)C1", "note": "(stereo not shown)", "hERG current change (%, negative = inhibition) at 1uM": 15}, {"smiles": "COc1cc2c(cc1OC)C(c1cc3cc(C)ccc3[nH]c1=O)N(C(=O)c1ccco1)CC2", "note": "(stereo not shown)", "hERG current change (%, negative = inhibition) at 1uM": 9.04}, {"smiles": "O=C(COC(=O)Cn1nnc2ccccc21)NC1CCCC1", "hERG current change (%, negative = inhibition) at 1uM": 7.12}, {"smiles": "Cc1cccc(NC(=O)COc2ccc(Br)cc2)n1", "hERG current change (%, negative = inhibition) at 1uM": 10.5}, {"smiles": "Cc1ccc(C)c(N2CCN(C(=O)c3ccc(CS(=O)Cc4cccc(Cl)c4)o3)CC2)c1", "note": "(stereo not shown)", "hERG current change (%, negative = inhibition) at 1uM": 9.51}, {"smiles": "O=S(=O)(c1ccc(Cl)nc1)N1CCCc2ccccc21", "hERG current change (%, negative = inhibition) at 1uM": 3.99}, {"smiles": "COc1cc([N+](=O)[O-])ccc1NC(=O)NCc1ccco1", "hERG current change (%, negative = inhibition) at 1uM": 12.2}, {"smiles": "CC(C)CCC(O)(CCC(C)C)C(=O)NN1CCCCC1", "hERG current change (%, negative = inhibition) at 1uM": 0.115}, {"smiles": "CCCCN1CNC(=S)N(Cc2ccccc2)C1", "hERG current change (%, negative = inhibition) at 1uM": 1.1}, {"smiles": "CCN(CCCNC(=O)c1cn(CC)c2ccc(S(=O)(=O)N(C)C)cc2c1=O)c1cccc(C)c1", "hERG current change (%, negative = inhibition) at 1uM": 1.47}, {"smiles": "O=C(CSc1ccc2nnc(-c3ccccc3)n2n1)NCc1ccco1", "hERG current change (%, negative = inhibition) at 1uM": -65.8}, {"smiles": "CC(C)CC(NS(=O)(=O)c1ccc2c(c1)oc(=O)n2C)C(=O)NCc1cccnc1", "note": "(stereo not shown)", "hERG current change (%, negative = inhibition) at 1uM": 11.9}, {"smiles": "N#C/C(=C\\c1ccccc1Cl)C(=O)NC(=O)Oc1ccccc1", "hERG current change (%, negative = inhibition) at 1uM": 20}, {"smiles": "COc1cc(NC(=O)Nc2cccc(Cl)c2)c(C(=O)O)cc1OC", "hERG current change (%, negative = inhibition) at 1uM": 15.9}, {"smiles": "COCCn1c(-c2cc(OC)c(OC)c(OC)c2)nc2oc3cc(OC)ccc3c(=O)c2c1=O", "hERG current change (%, negative = inhibition) at 1uM": 9.98}, {"smiles": "COc1ccc(COC(=O)c2cc([N+](=O)[O-])ccc2N2CCOCC2)cc1F", "hERG current change (%, negative = inhibition) at 1uM": -11.7}, {"smiles": "COc1ccc(CCNCc2ccccc2N2CCCC2)cc1.O=C(O)C(=O)O", "hERG current change (%, negative = inhibition) at 1uM": 1.68}, {"smiles": "COc1cc(C(C)=O)ccc1O", "hERG current change (%, negative = inhibition) at 1uM": 13.3}, {"smiles": "COC(=O)C(NS(C)(=O)=O)(c1c(C)[nH]c2ccccc12)C(F)(F)F", "note": "(stereo not shown)", "hERG current change (%, negative = inhibition) at 1uM": -3.55}, {"smiles": "CCc1c(C)nc2ncnn2c1N1CCC(C(=O)NCc2cccs2)CC1", "hERG current change (%, negative = inhibition) at 1uM": -4.9}, {"smiles": "COc1ccc2c(c1OC)C(=O)N(c1ccc(C)cc1)C2=O", "hERG current change (%, negative = inhibition) at 1uM": 0.784}, {"smiles": "O=C(O)Cc1ccc(C(=O)c2ccc(F)cc2)s1", "hERG current change (%, negative = inhibition) at 1uM": 10.7}, {"smiles": "O=C(NCc1nnc(SCC(=O)N2CCN(c3ccccc3)CC2)o1)c1ccco1", "hERG current change (%, negative = inhibition) at 1uM": 8.83}, {"smiles": "CC(C)(C)c1ccc(C(=O)NCc2nnc(SCC(=O)NC3CCCC3)o2)cc1", "hERG current change (%, negative = inhibition) at 1uM": 9.82}, {"smiles": "CCCN1C(=S)SC(C)(C)C1/[N+]([O-])=C/c1ccc(S(=O)(=O)NC)cc1", "note": "(stereo not shown)", "hERG current change (%, negative = inhibition) at 1uM": 15.9}, {"smiles": "COc1ccc(C2Nc3ccccc3C(=O)N2Cc2ccccc2)cc1CSc1ccccn1", "note": "(stereo not shown)", "hERG current change (%, negative = inhibition) at 1uM": 13.7}, {"smiles": "CC(OC(=O)c1cccs1)C(=O)NCCc1ccccc1", "note": "(stereo not shown)", "hERG current change (%, negative = inhibition) at 1uM": 10.2}, {"smiles": "Cn1c(=O)c2c(nc(CN3CCN(C(=O)c4ccco4)CC3)n2CCCc2ccccc2)n(C)c1=O", "hERG current change (%, negative = inhibition) at 1uM": -25.5}, {"smiles": "Cc1sc2nc3ccc(N4CCCC4)nn3c(=O)c2c1C", "hERG current change (%, negative = inhibition) at 1uM": -7.29}, {"smiles": "CCc1nc2ccccc2n(CCOCCOCCn2c(=O)c(CC)nc3ccccc32)c1=O", "hERG current change (%, negative = inhibition) at 1uM": 3.28}, {"smiles": "CCCCCCCC(=O)NNC(=O)c1ccc([N+](=O)[O-])cc1", "hERG current change (%, negative = inhibition) at 1uM": -2.83}, {"smiles": "CCNc1nc(NCC)nc(SCCOC(=O)Nc2ccc(Cl)cc2Cl)n1", "hERG current change (%, negative = inhibition) at 1uM": 0.538}, {"smiles": "CC(CCc1ccccc1)NC(=O)C1CCN(C(=O)c2sccc2-n2cccc2)CC1", "note": "(stereo not shown)", "hERG current change (%, negative = inhibition) at 1uM": 6.71}, {"smiles": "O=C(O)c1ccc(-c2ccccc2)[nH]1", "hERG current change (%, negative = inhibition) at 1uM": 9.63}, {"smiles": "COCCN1C(=O)N(c2cccc(C)c2)C(=O)C1CC(=O)Nc1ccc(F)cc1", "note": "(stereo not shown)", "hERG current change (%, negative = inhibition) at 1uM": 0.812}, {"smiles": "O=[N+]([O-])c1ccc(O)c(/C=N/Nc2ccccc2Cl)c1", "hERG current change (%, negative = inhibition) at 1uM": 23.4}, {"smiles": "CC(NC(=O)c1cccc(S(=O)(=O)N2CCN(C)CC2)c1)C1CC2CCC1C2", "note": "(stereo not shown)", "hERG current change (%, negative = inhibition) at 1uM": 1.27}, {"smiles": "CN1C(=O)NC(c2ccc(O)cc2)C2=C1CN(c1ccc(O)cc1)C2=O", "note": "(stereo not shown)", "hERG current change (%, negative = inhibition) at 1uM": 18.6}]}]}
